Laboratory results from patent US20210238308A1 (Chugai, published 2021).

T1: PRYSPRY domain of human TRIM21 with N-terminal 6xHis tag (human)
T1 construct: Expressed in E. coli; also called hTRIM21; human TRIM21.PRYSPRY
T1 chain: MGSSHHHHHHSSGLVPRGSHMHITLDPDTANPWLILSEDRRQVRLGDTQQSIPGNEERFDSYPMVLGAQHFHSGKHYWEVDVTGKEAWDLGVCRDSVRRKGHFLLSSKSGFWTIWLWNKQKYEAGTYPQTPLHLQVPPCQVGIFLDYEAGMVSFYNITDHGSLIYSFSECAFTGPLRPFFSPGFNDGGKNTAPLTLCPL

T2: PRYSPRY domain of mouse TRIM21 with N-terminal 6xHis tag (mouse)
T2 construct: Expressed in E. coli; also called mTRIM21; mouse TRIM21.PRYSPRY
T2 chain: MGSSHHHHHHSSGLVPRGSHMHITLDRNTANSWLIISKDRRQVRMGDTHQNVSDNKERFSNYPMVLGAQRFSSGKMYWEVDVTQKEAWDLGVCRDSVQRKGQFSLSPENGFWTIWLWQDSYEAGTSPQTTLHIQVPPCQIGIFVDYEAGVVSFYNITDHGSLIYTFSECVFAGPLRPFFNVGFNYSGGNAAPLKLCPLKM


Key:
Experiment in all cases: SPR, Protein L capture
[1] = target: T1, PRYSPRY domain of human TRIM21 with …
[2] = target: T2, PRYSPRY domain of mouse TRIM21 with …
[3] = target: T3, human FcRn (human, UniProt P55899 part only; P61769 part only, limits assumed)
T3 construct: also called hFcRn
T3 sequence (P55899 24-290 limits assumed, form in doubt, chain 1 of 2): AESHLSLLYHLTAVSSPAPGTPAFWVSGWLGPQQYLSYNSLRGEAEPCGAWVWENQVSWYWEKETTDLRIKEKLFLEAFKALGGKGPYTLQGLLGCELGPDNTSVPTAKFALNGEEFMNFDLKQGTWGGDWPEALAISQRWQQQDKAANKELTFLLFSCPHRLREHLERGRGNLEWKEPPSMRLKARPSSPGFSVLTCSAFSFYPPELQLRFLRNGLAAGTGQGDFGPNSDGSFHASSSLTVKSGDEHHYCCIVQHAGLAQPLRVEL
T3 sequence (P61769 21-119 limits assumed, form in doubt, chain 2 of 2, further chain): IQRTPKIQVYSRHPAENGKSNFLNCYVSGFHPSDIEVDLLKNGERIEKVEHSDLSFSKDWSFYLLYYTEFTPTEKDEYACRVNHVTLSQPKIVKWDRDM

Binder	hTRIM21 binding level ratio (variant/control antibody) [1]	mTRIM21 binding level ratio (variant/control antibody) [2]	hFcRn binding level ratio (variant/control antibody) [3]
MRAH-G1d/MRAL-KT0 I253F (antibody, human IgG1, kappa, copies: 2 + 2) heavy: QVQLQESGPGLVRPSQTLSLTCTVSGYSITSDHAWSWVRQPPGRGLEWIGYISYSGITTYNPSLKSRVTMLRDTSKNQFSLRLSSVTAADTAVYYCARSLARTTAMDYWGQGSLVTVSS[human IgG1 constant region with I253F (EU numbers) omitted here] light: DIQMTQSPSSLSASVGDRVTITCRASQDISSYLNWYQQKPGKAPKLLIYYTSRLHSGVPSRFSGSGSGTDFTFTISSLQPEDIATYYCQQGNTLPYTFGQGTKVEIKRTVAAPSVFIFPPSDEQLKSGTASVVCLLNNFYPREAKVQWKVDNALQSGNSQESVTEQDSKDSTYSLSSTLTLSKADYEKHKVYACEVTHQGLSSPVTKSFNRGEC	1.45	2.31	0
MRAH-G1d/MRAL-KT0 I253H (antibody, human IgG1, kappa, copies: 2 + 2) heavy: QVQLQESGPGLVRPSQTLSLTCTVSGYSITSDHAWSWVRQPPGRGLEWIGYISYSGITTYNPSLKSRVTMLRDTSKNQFSLRLSSVTAADTAVYYCARSLARTTAMDYWGQGSLVTVSS[human IgG1 constant region with I253H (EU numbers) omitted here] light: DIQMTQSPSSLSASVGDRVTITCRASQDISSYLNWYQQKPGKAPKLLIYYTSRLHSGVPSRFSGSGSGTDFTFTISSLQPEDIATYYCQQGNTLPYTFGQGTKVEIKRTVAAPSVFIFPPSDEQLKSGTASVVCLLNNFYPREAKVQWKVDNALQSGNSQESVTEQDSKDSTYSLSSTLTLSKADYEKHKVYACEVTHQGLSSPVTKSFNRGEC	0.928	1.32	0
MRAH-G1d/MRAL-KT0 I253L (antibody, human IgG1, kappa, copies: 2 + 2) heavy: QVQLQESGPGLVRPSQTLSLTCTVSGYSITSDHAWSWVRQPPGRGLEWIGYISYSGITTYNPSLKSRVTMLRDTSKNQFSLRLSSVTAADTAVYYCARSLARTTAMDYWGQGSLVTVSS[human IgG1 constant region with I253L (EU numbers) omitted here] light: DIQMTQSPSSLSASVGDRVTITCRASQDISSYLNWYQQKPGKAPKLLIYYTSRLHSGVPSRFSGSGSGTDFTFTISSLQPEDIATYYCQQGNTLPYTFGQGTKVEIKRTVAAPSVFIFPPSDEQLKSGTASVVCLLNNFYPREAKVQWKVDNALQSGNSQESVTEQDSKDSTYSLSSTLTLSKADYEKHKVYACEVTHQGLSSPVTKSFNRGEC	1.47	3.28	0.03
MRAH-G1d/MRAL-KT0 I253M (antibody, human IgG1, kappa, copies: 2 + 2) heavy: QVQLQESGPGLVRPSQTLSLTCTVSGYSITSDHAWSWVRQPPGRGLEWIGYISYSGITTYNPSLKSRVTMLRDTSKNQFSLRLSSVTAADTAVYYCARSLARTTAMDYWGQGSLVTVSS[human IgG1 constant region with I253M (EU numbers) omitted here] light: DIQMTQSPSSLSASVGDRVTITCRASQDISSYLNWYQQKPGKAPKLLIYYTSRLHSGVPSRFSGSGSGTDFTFTISSLQPEDIATYYCQQGNTLPYTFGQGTKVEIKRTVAAPSVFIFPPSDEQLKSGTASVVCLLNNFYPREAKVQWKVDNALQSGNSQESVTEQDSKDSTYSLSSTLTLSKADYEKHKVYACEVTHQGLSSPVTKSFNRGEC	1.38	2.71	0.31
MRAH-G1d/MRAL-KT0 I253V (antibody, human IgG1, kappa, copies: 2 + 2) heavy: QVQLQESGPGLVRPSQTLSLTCTVSGYSITSDHAWSWVRQPPGRGLEWIGYISYSGITTYNPSLKSRVTMLRDTSKNQFSLRLSSVTAADTAVYYCARSLARTTAMDYWGQGSLVTVSS[human IgG1 constant region with I253V (EU numbers) omitted here] light: DIQMTQSPSSLSASVGDRVTITCRASQDISSYLNWYQQKPGKAPKLLIYYTSRLHSGVPSRFSGSGSGTDFTFTISSLQPEDIATYYCQQGNTLPYTFGQGTKVEIKRTVAAPSVFIFPPSDEQLKSGTASVVCLLNNFYPREAKVQWKVDNALQSGNSQESVTEQDSKDSTYSLSSTLTLSKADYEKHKVYACEVTHQGLSSPVTKSFNRGEC	0.902	0.832	0.03
MRAH-G1d/MRAL-KT0 I253W (antibody, human IgG1, kappa, copies: 2 + 2) heavy: QVQLQESGPGLVRPSQTLSLTCTVSGYSITSDHAWSWVRQPPGRGLEWIGYISYSGITTYNPSLKSRVTMLRDTSKNQFSLRLSSVTAADTAVYYCARSLARTTAMDYWGQGSLVTVSS[human IgG1 constant region with I253W (EU numbers) omitted here] light: DIQMTQSPSSLSASVGDRVTITCRASQDISSYLNWYQQKPGKAPKLLIYYTSRLHSGVPSRFSGSGSGTDFTFTISSLQPEDIATYYCQQGNTLPYTFGQGTKVEIKRTVAAPSVFIFPPSDEQLKSGTASVVCLLNNFYPREAKVQWKVDNALQSGNSQESVTEQDSKDSTYSLSSTLTLSKADYEKHKVYACEVTHQGLSSPVTKSFNRGEC	0.912	2.35	0
MRAH-G1d/MRAL-KT0 I253Y (antibody, human IgG1, kappa, copies: 2 + 2) heavy: QVQLQESGPGLVRPSQTLSLTCTVSGYSITSDHAWSWVRQPPGRGLEWIGYISYSGITTYNPSLKSRVTMLRDTSKNQFSLRLSSVTAADTAVYYCARSLARTTAMDYWGQGSLVTVSS[human IgG1 constant region with I253Y (EU numbers) omitted here] light: DIQMTQSPSSLSASVGDRVTITCRASQDISSYLNWYQQKPGKAPKLLIYYTSRLHSGVPSRFSGSGSGTDFTFTISSLQPEDIATYYCQQGNTLPYTFGQGTKVEIKRTVAAPSVFIFPPSDEQLKSGTASVVCLLNNFYPREAKVQWKVDNALQSGNSQESVTEQDSKDSTYSLSSTLTLSKADYEKHKVYACEVTHQGLSSPVTKSFNRGEC	1.46	1.25	0
MRAH-G1d/MRAL-KT0 L309D (antibody, human IgG1, kappa, copies: 2 + 2) heavy: QVQLQESGPGLVRPSQTLSLTCTVSGYSITSDHAWSWVRQPPGRGLEWIGYISYSGITTYNPSLKSRVTMLRDTSKNQFSLRLSSVTAADTAVYYCARSLARTTAMDYWGQGSLVTVSS[human IgG1 constant region with L309D (EU numbers) omitted here] light: DIQMTQSPSSLSASVGDRVTITCRASQDISSYLNWYQQKPGKAPKLLIYYTSRLHSGVPSRFSGSGSGTDFTFTISSLQPEDIATYYCQQGNTLPYTFGQGTKVEIKRTVAAPSVFIFPPSDEQLKSGTASVVCLLNNFYPREAKVQWKVDNALQSGNSQESVTEQDSKDSTYSLSSTLTLSKADYEKHKVYACEVTHQGLSSPVTKSFNRGEC	0.209	1.04	0.41
MRAH-G1d/MRAL-KT0 L309E (antibody, human IgG1, kappa, copies: 2 + 2) heavy: QVQLQESGPGLVRPSQTLSLTCTVSGYSITSDHAWSWVRQPPGRGLEWIGYISYSGITTYNPSLKSRVTMLRDTSKNQFSLRLSSVTAADTAVYYCARSLARTTAMDYWGQGSLVTVSS[human IgG1 constant region with L309E (EU numbers) omitted here] light: DIQMTQSPSSLSASVGDRVTITCRASQDISSYLNWYQQKPGKAPKLLIYYTSRLHSGVPSRFSGSGSGTDFTFTISSLQPEDIATYYCQQGNTLPYTFGQGTKVEIKRTVAAPSVFIFPPSDEQLKSGTASVVCLLNNFYPREAKVQWKVDNALQSGNSQESVTEQDSKDSTYSLSSTLTLSKADYEKHKVYACEVTHQGLSSPVTKSFNRGEC	0.229	1.28	0.02
MRAH-G1d/MRAL-KT0 L309F (antibody, human IgG1, kappa, copies: 2 + 2) heavy: QVQLQESGPGLVRPSQTLSLTCTVSGYSITSDHAWSWVRQPPGRGLEWIGYISYSGITTYNPSLKSRVTMLRDTSKNQFSLRLSSVTAADTAVYYCARSLARTTAMDYWGQGSLVTVSS[human IgG1 constant region with L309F (EU numbers) omitted here] light: DIQMTQSPSSLSASVGDRVTITCRASQDISSYLNWYQQKPGKAPKLLIYYTSRLHSGVPSRFSGSGSGTDFTFTISSLQPEDIATYYCQQGNTLPYTFGQGTKVEIKRTVAAPSVFIFPPSDEQLKSGTASVVCLLNNFYPREAKVQWKVDNALQSGNSQESVTEQDSKDSTYSLSSTLTLSKADYEKHKVYACEVTHQGLSSPVTKSFNRGEC	0.885	2.12	0.78
MRAH-G1d/MRAL-KT0 L309G (antibody, human IgG1, kappa, copies: 2 + 2) heavy: QVQLQESGPGLVRPSQTLSLTCTVSGYSITSDHAWSWVRQPPGRGLEWIGYISYSGITTYNPSLKSRVTMLRDTSKNQFSLRLSSVTAADTAVYYCARSLARTTAMDYWGQGSLVTVSS[human IgG1 constant region with L309G (EU numbers) omitted here] light: DIQMTQSPSSLSASVGDRVTITCRASQDISSYLNWYQQKPGKAPKLLIYYTSRLHSGVPSRFSGSGSGTDFTFTISSLQPEDIATYYCQQGNTLPYTFGQGTKVEIKRTVAAPSVFIFPPSDEQLKSGTASVVCLLNNFYPREAKVQWKVDNALQSGNSQESVTEQDSKDSTYSLSSTLTLSKADYEKHKVYACEVTHQGLSSPVTKSFNRGEC	0.93	1.92	1.2
